# PubChem BioAssay AID504706 (National Center for Advancing Translational Sciences (NCATS), 2011)
# Out of some 320,000 compounds screened, about 200 (0.062%) were called active. Inconclusive results, whose numbers are uncertain, are shown with a selection of clear calls. Calls come from the whole dose curve; as a rule, active = well fitted activation curve with a large enough effect; inconclusive = small, poorly fitted or top-dose-only effect; inactive = no such curve, though single readings can be large or run the other way. Potencies of inconclusive entries are left out as doubtful fits.
# Test: qHTS assay for re-activators of p53 using a Luc reporter; note: nearly all actives have a fitted effect of over 45% in size
# Conditions: H1299 p53-A138V BP100-luciferase reporter, luminescence, 24 h; series mostly up to 92.2 µM
# In short: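 H1299 (p53-null), stable ts p53-A138V + BP100-Luc; 1000 cells/well, Opti-MEM/10% FBS; cpd 4 pt, 1:5; 24 h, 37 deg C, 5% CO2; detection reagent 10 min RT; luminescence.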
# Potency is the fitted concentration of half-maximal effect; tags give direction and shape of the fitted curve.
row,Structure (SMILES),Potency
1,C/C(Cn1nnc([N+](=O)[O-])n1)=N\NC(=O)c1ccc(C)cc1,"inconclusive [activator, partial curve, poor fit]"
2,Cc1c(C(=O)N2CCOCC2)sc(NC(=O)c2ccc([N+](=O)[O-])cc2)c1C#N,inactive
3,CCCCN=C(C)c1c(O)c2ccccc2oc1=O,"inconclusive [activator, partial curve, poor fit]"
4,CCCCNC(=O)c1cc2c(=O)n3cccc(C)c3nc2n1C,inactive
5,COc1ccc2cc(CN(CC3CCCO3)C(=O)Nc3ccccc3OC)c(=O)[nH]c2c1 (centres undefined),inactive
6,O=C1c2ccccc2C(=O)C1(CO)c1ccc(OC(F)F)cc1,"inconclusive [activator, partial curve, poor fit]"
7,O=C(c1ccccc1)N1CCN(c2nc3ccc([N+](=O)[O-])cc3s2)CC1,inactive
8,CC#CCCCC(=O)Nc1ccccc1C(=O)O,"inconclusive [activator, partial curve, poor fit]"
9,O=C(Nc1ccc2c3c(cccc13)CC2)c1ccco1,"inconclusive [activator, single point]"
10,Cc1ccc(C2CCN(C(=S)NC3CCCCC3)C2)cc1 (centres undefined),"inconclusive [activator, partial curve, poor fit]"
11,CC(=O)Nc1cccc(C(=O)/C=C/c2ccco2)c1,"inconclusive [activator, full curve, poor fit]"
12,COCc1c(C(=O)N2CCN(Cc3nc4ccccc4s3)CC2)oc2ccccc12,"inconclusive [activator, partial curve, poor fit]"
13,O=C(NCCCc1ccccc1)c1ccc([N+](=O)[O-])cc1Cl,"inconclusive [activator, partial curve, poor fit]"
14,Cc1cccc(NC(=S)N(Cc2cccs2)Cc2cc3cc(C)ccc3[nH]c2=O)c1,inactive
15,COC(=O)c1cc(Cc2ccc(N)c(C(=O)OC)c2)ccc1N,inactive
16,Cc1ccc(SC[C@H](c2ccccc2)N2CCN(CCc3ccccc3)CCC2=O)cc1,"inconclusive [activator, partial curve]"
17,Cc1ccc(NC2=CC(=O)CC(C)(C)C2)c(N)c1,"inconclusive [activator, single point]"
18,CCCCc1ccc(-c2ccc(Br)cc2)nc1,"inconclusive [activator, partial curve, poor fit]"
19,Cn1c(N)c(C(=O)COC(=O)CSc2ccccc2)c(=O)n(C)c1=O,"inconclusive [activator, full curve]"
20,CCc1ccc(Nc2cc(C)nc3ncnn23)cc1,inactive
21,CC(=O)c1c(C)[nH]c(C(=O)OCC(=O)Nc2ccc([N+](=O)[O-])cc2Cl)c1C,inactive
22,O=C(N/N=C/c1cccnc1)c1cccc(NC(=O)c2ccccc2Cl)c1,"inconclusive [activator, single point]"
23,O=C(NCCC1=CCCCC1)c1ccc(Cl)c([N+](=O)[O-])c1,"inconclusive [activator, partial curve, poor fit]"

row,Structure (SMILES),Potency
1,O=C(Nc1cc2c(cc1Br)OCCCO2)c1ccccc1,"inconclusive [activator, partial curve, poor fit]"
2,COc1cc(C(=O)NCCSc2ccccc2)cc(OC)c1OC,"inconclusive [activator, full curve, poor fit]"
3,COC(=O)c1ccc(NC(=O)C(=O)N2CCCC2)cc1,inactive
4,Cc1ccc(-c2csc(NNC(=O)c3ccccc3)n2)cc1,"inconclusive [activator, partial curve, poor fit]"
5,Cc1cc(-c2ccccc2)nc(N/N=C/c2ccco2)n1,"inconclusive [activator, partial curve, poor fit]"
6,COc1ccc2c(c1OC)C(=O)N(c1ccc(OCc3ccccc3)cc1)C2=O,inactive
7,Cc1cccc2nc3c(nc12)CCCC3,"inconclusive [activator, partial curve, poor fit]"
8,COc1cccc(NC(=O)N2CCCCCC2)c1,"inconclusive [activator, partial curve, poor fit]"
9,O=C(NC1CCCCC1)C(=O)c1c[nH]c2ccccc12,"inconclusive [activator, partial curve, poor fit]"
10,CN(C)CCNC(=O)c1cc2ccccc2oc1=O,inactive
11,Cc1ccc(-c2nnc(/C=C/c3ccccc3)o2)cc1,"inconclusive [activator, full curve, poor fit]"
12,Cc1cc2n(n1)C(c1ccc3c(c1)OCO3)Nc1c(C)cccc1-2 (centres undefined),inactive
13,O=C(Cc1ccc(Cl)cc1)NCC(=O)N1CCCC1,"inconclusive [activator, single point]"
14,COc1cc(/C=N/NC(N)=S)ccc1OCc1ccc(C)cc1,"inconclusive [activator, partial curve, poor fit]"
15,Cc1cc(OCc2cc(C(=O)NCc3cc(C(C)C)no3)no2)cc(C)c1Cl,"inconclusive [activator, full curve, poor fit]"
16,COc1cccc(C(=O)C[n+]2ccccc2/C=N/O)c1,"inconclusive [activator, partial curve, poor fit]"
17,O=C(NCCc1c[nH]c2ccccc12)c1cc(Cl)c2c(c1)OCO2,"inconclusive [activator, partial curve, poor fit]"
18,c1ccn2cc(CSC3=NCCS3)nc2c1,"inconclusive [activator, partial curve, poor fit]"
19,COc1cc(NC(=O)Cn2c([N+](=O)[O-])cnc2C)c(OC)cc1Cl,"inconclusive [activator, single point]"
20,COc1cc(OC)c(C(=O)OCCCOC(=O)c2cc(OC)c(OC)cc2OC)cc1OC,"inconclusive [activator, partial curve, poor fit]"
21,O=C(CSc1ccccn1)Nc1nonc1[N+](=O)[O-],inactive
22,O=C(COC(=O)/C=C/c1cccc(Br)c1)NC1CCCC1,"inconclusive [activator, partial curve, poor fit]"
23,Cc1cc(C)cc(NC(=O)CN(C)S(=O)(=O)c2cnc[nH]2)c1,inactive

row,Structure (SMILES),Potency
1,COc1cccc(NC(=O)Nc2cccs2)c1,"inconclusive [activator, partial curve, poor fit]"
2,CC(C)(C)n1nnnc1C(c1ccc(F)cc1)N(Cc1ccc(F)cc1)Cc1ccco1 (centres undefined),"inconclusive [activator, single point]"
3,CCOC(=O)c1ccc(N2Cc3ccccc3C2=NC(=O)c2cccs2)cc1,"inconclusive [activator, full curve, poor fit]"
4,NC(=O)c1ccccc1NC(=O)COc1ccc2c(c1)OCO2,"inconclusive [activator, partial curve, poor fit]"
5,NS(=O)(=O)c1cccc(NC(=O)c2cccc(Oc3ccccc3)c2)c1,inactive
6,CCn1c(CCCOc2ccc(Cl)cc2Cl)nnc1SCC(=O)Nc1cc(F)ccc1C,"inconclusive [activator, single point]"
7,CCOC(=O)N1CCN(C(=O)CCSCCc2ccncc2)CC1,"inconclusive [activator, single point]"
8,COc1cc2c(cc1NC(=O)c1cccc([N+](=O)[O-])c1)oc1ccccc12,"inconclusive [activator, partial curve, poor fit]"
9,COc1cc(/C=N/NC(=O)c2ccc3c(c2)OCO3)ccc1O,inactive
10,Cc1cc(=O)oc2cc(OCC(=O)NCC3CCCO3)ccc12 (centres undefined),inactive
11,COCCNC(=O)C(=O)c1cc(C)n(-c2ccc([N+](=O)[O-])cc2)c1C,"inconclusive [activator, full curve, poor fit]"
12,O=C(/C=C/c1ccc2c(c1)OCO2)NCc1ccco1,"inconclusive [activator, partial curve, poor fit]"
13,CC(=O)Nc1ccc(S(=O)(=O)N[C@@H](C)C(=O)NC2CCCc3ccccc32)cc1 (some centres undefined),inactive
14,O=C(Nc1ccc2[nH]c(=S)sc2c1)Nc1ccccc1F,"inconclusive [activator, partial curve, poor fit]"
15,O=C(NC1CCCCC1)c1ccc(-c2ccc(Cl)cc2)o1,"inconclusive [activator, partial curve, poor fit]"
16,O=C(O)c1cc(N/N=C2/CC(c3ccccc3)Oc3ccccc32)ccc1Cl (centres undefined),"inconclusive [activator, single point]"
17,C=CCOc1ccc(C2C(C(=O)c3ccco3)=C(O)C(=O)N2c2nnc(C)s2)cc1 (centres undefined),inactive
18,S=C(NCc1cccs1)Nc1cccc(Cl)c1Cl,"inconclusive [activator, partial curve]"
19,Cc1cc(/C=C2\NC(=O)NC2=O)c(C)n1-c1cccnc1,inactive
20,CSc1nsc(SCC(=O)Nc2nc3ccccc3s2)n1,"inconclusive [activator, single point]"
21,CCn1c(C)c(C)c2cc(C(=O)N3CCc4ccccc4C3)ccc21,"inconclusive [activator, single point]"
22,O=C1C2CCCCC2C(=O)N1c1ccc(S(=O)(=O)Nc2ncccn2)cc1 (centres undefined),inactive
23,COc1cccc2c1NC(C(=O)O)C1CC=CC21 (centres undefined),inactive
